Measurements: the RNAGym collection of RNA variant scans (doi:10.1073/pnas.2313332121)
Variants at the floor of the assay are shown more often than the library holds them.

B1: TPR 5TU (parent)
chain: GGAUCUUCUCGAUCUAACAAAAAAGACAAAUCUGCCACAAAGCUUGAGAGCAUCUUCGGAUGCAGAGGCGGCAGCCUUCGGUGGCGCGAUAGCGCCAACGUUCUCAACUAUGACACGCAAAACGCGUGCUCCGUUGAAUGGAGUUUAUCAUG

Variants of: B1
Assay: polymerase ribozyme fitness, log enrichment relative to wild type (log ratio); higher = more active; in vitro selection for triplet polymerase activity
Summary of the method: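 In triplicate, a single round of in vitro selection was run on each mutant library, PCR-built and transcribed, covering one subunit of a heterodimeric triplet polymerase ribozyme. Frozen incubation at −7 °C followed annealing with a biotinylated primer, partner subunit and triplets, and extended constructs were then gel-excised, streptavidin-captured and taken through RT-PCR. Fitness is the logarithm of genotype enrichment over wild-type enrichment, from inverse-variance-weighted replicate averages of Illumina-sequenced inputs and outputs. […] only genotypes with ≥10 input reads and ≥1 read per output were kept.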

Polymerase ribozyme fitness (log ratio), -3.21:
GGAUCUUCUCGAUCUAACAAAAAAGACAAAUCUGCCACAAAGCUUGCGAGCAUCUUCGGAAGCAGAGGCGGCAGCCUUCGGUGGCGCGAUAGCGCCAACGUUCUCAACUAUGACACGCAAAACGCGUGCUCCGUUGAAUGGAGUUUAUCAUG [A47C U61A]

Polymerase ribozyme fitness (log ratio), -3.35:
GGAUCUUCUCGAUCUAACAAAAAAGACAAAUCUGCCACAAAGCUUGCGAGCAUCUUCGGACGCAGAGGCGGCAGCCUUCGGUGGCGCGAUAGCGCUAACGUUCUCAACUAUGACACGCAAAACGCGUGCUCCGUUGAAUGGAGUUUAUCAUG [A47C U61C C96U]

Polymerase ribozyme fitness (log ratio), ≤ -4.2:
GGAUCUUCUCGAUCUAACAAAAAAGACAAAUCUGCCACAAAGCUUGCGAGCAUCUUCGGAUGCAGAGGCGGCAGCCUUCGGUUGCGCGAUAGCGCCAACGUUCUGAACUAUGACACGCAAAACGAGUGCUCCGUUGAAUGGAGUUUAUCAUG [A47C G83U C105G C125A]
GGAUCUUCUCGAUCUAACAAAAAAGACAAAUCUGCCACAAAGCUUGCGAGCAUCUUCGGAUGCAGAGGCGGCAGCCUUCGGUGUUGCGAUAGCGCCAACGUCCUCAACUAUGACACGCAAAACGCGUGCUCCGUUGAAUGGAGUUUAUCAUG [A47C G84U C85U U102C]
GGAUCUUCUCGAUCUAACAAAAAAGACAAAUCUGCCACAAAGCUUGCGAGCAUCUUCGGAUGCAGAGGCGGCAGCCUUCGGUGGCCCGAUCGCGCCAACGUUCUCAACGAUGACACUCAAAACGCGUGCUCCGUUGAAUGGAGCUUAUCAUG [A47C G86C A91C U109G G117U U144C]
GGAUCUUCUCGAUCUAACAAAAAAGACAAAUCUGCCACAAAGCUUGCGAGCAUCUUCGGAUGCAGAGGCGGCAGCCUUCGGUGGCGCGAUAACGCCAACGUUCUCAGCUAUGACACGCAAAACGCGUGCUCCGUUGAAUGGAGUUUAUCAUG [A47C G92A A107G]
GGAUCUUCUCGAUCUAACAAAAAAGACAAAUCUGCCACAAAGCUUGCGAGCAACUUCGGAUGCAGAGGCGGCAGCCUUGGGUGGCGCGAUAGUGCCAACGUUCUCAACUAUGACCCGCAAAACGUGUGCUCCGUUGAAUGGAGUUUAUCAUG [A47C U53A C79G C93U A115C C125U]
GGAUCUUCUCGAUCUAACAAAAAAGACAAAUCUGCCACAAAGCUUGCGAGCAUCAUAGGAUGCAGAGGCGGCAGCCUUCGGUGUCGCGAUAGCGCUAAUGUUCUCAACUAUGACACGCAAAACGCGUGCUCCGUUAAAUGGACUUUAUCAUG [A47C U55A C57A G84U C96U C99U G136A G143C]
GGAUCUUCUCGAUCUAACAAAAAAGACAAAUCUGCCACAAAGCUUGCGAGCAUCAUCGGAUGCAGAGCCGGCAGCCUUCGGUGGCGCGAUCGCGACAACGUUUUCAACUAUGACACGCAAAACGCGUGCUCCGUUGAAUUGAGUUUAUCAUG [A47C U55A G68C A91C C95A C103U G140U]
GGAUCUUCUCGAUCUAACAAAAAAGACAAAUCUGCCACAAAGCUUGCGAGCAUCAUCGGAUGCAGAGGCGCCAGCCUUCGGUGGCGCGAUAGCGCAAACGUUCUCAACUAUGACACGCAAAACGCGUGCUCCGAUGCAUGGAGUUUAUCAUG [A47C U55A G71C C96A U134A A137C]
GGAUCUUCUCGAUCUAACAAAAAAGACAAAUCUGCCACAAAGCUUGCGAGCAUCAUCGGAUGCAGAGGCGUCACCCUUCGGUGCCGCGAUAGCGCCAACGUUCUCAACUAUGACACGCAAAACGCGUGCUCCGUUGAAGGGAGUUUAUCAUG [A47C U55A G71U G74C G84C U139G]
GGAUCUUCUCGAUCUAACAAAAAAGACAAAUCUGCCACAAAGCUUGCGAGCAUCGUCGGGUGCAGAGGUGGCAGCCUUCGGUGGCGCGAUCGCGCCAACGUUCUCAACUAUGACACGCAAAACGCGUGCUCCGUUGAAUGGACUUUAUCAUG [A47C U55G A60G C69U A91C G143C]
GGAUCUUCUCGAUCUAACAAAAAAGACAAAUCUGCCACAAAGCUUGCGAGCAUCUAAGGAUGCAGAGGCGGCAGCCUUGGGUGGCGCCAUAGCGCCAACGUUCUCAACUAUGACACGCAAAACGCGUGCUCCGUUGAAUGGAGUUUAUCGUG [A47C U56A C57A C79G G88C A150G]
GGAUCUUCUCGAUCUAACAAAAAAGACAAAUCUGCCACAAAGCUUGCGAGCAUCUACGGAUGCAGAGGCGGCAGCCUUGGGUGACGCGAUAGCGCCAGCGUUCUCAACUAUGACACGCAAAACGCGUGCUCCGUUGAAUGGCGUUUAUCAUG [A47C U56A C79G G84A A98G A142C]
GGAUCUUCUCGAUCUAACAAAAAAGACAAAUCUGCCACAAAGCUUGCGAGCAUCUACGGAUGCAGAGGCGGCAGCCUACGGUGGCGCGAGAGCGCCAACGUUCUCAACUAUGACACGCAAAACGCGUGCUCCGUUGAAUGGAGUUUAUCAUG [A47C U56A U78A U90G]
GGAUCUUCUCGAUCUAACAAAAAAGACAAAUCUGCCACAAAGCUUGCGAGCAUCUUCGGAAGCAGAGGCGGCAGCCUGCGGGGGCGCUAUAGCGCCAAACUUCUCAACUAUGACACGAAAAACGCGUGCUCCGUUGAAUGCAGUUUAUCAUG [A47C U61A U78G U82G G88U C99A G100C C118A G141C]
GGAUCUUCUCGAUCUAACAAAAAAGACAAAUCUGCCACAAAGCUUGCGAGCAUCUUCGGAUGCAGAGGCGGCAGCCUACGGUGGCGCGAUAGCGCCAACGUUCUCAACUAUGACACGCAAAACGCGUGCUCCGUUGAAUGGAGUUUAUCAUG [A47C U78A]
GGAUCUUCUCGAUCUAACAAAAAAGACAAAUCUGCCACAAAGCUUGCGAGCAUCUUCGGAUGCAGAGGCGGCAGCCUGCGGUGGCGCGAUAGCGCCAACGUGCUCAACUAUGACACGCAAAACGCGGGAUCCGUUCAAUGGAGUUUAUCAUG [A47C U78G U102G U127G C129A G136C]

Polymerase ribozyme fitness (log ratio), -1.09:
GGAUCUUCUCGAUCUAACAAAAAAGACAAAUCUGCCACAAAGCUUGCGAGCAUCUUCGGAUGCAGAGGCGGCAGCCUUCGGUGGCGCGAUAGCGCCAACGUUCUCAACUAUGACACGCAAAACUCGUGCUCCGUUGAAUGGAGUUUAUCAUG [A47C G124U]
